In PubChem BioAssay AID504333 (National Center for Advancing Translational Sciences (NCATS), 2011):
The whole screen tested about 360,000 compounds, of which about 16,000 (4.4%) were called active. The shares of active, inactive and inconclusive entries below differ from those in the screen. Calls come from the whole dose curve; as a rule, active = well fitted inhibition curve with a large enough effect; inconclusive = small, poorly fitted or top-dose-only effect; inactive = no such curve, though single readings can be large or run the other way. Potencies beside an inconclusive call are fits to weak or partial responses and may not hold up.

biological target: Bromodomain adjacent to zinc finger domain protein 2B (Homo sapiens) (UniProt Q9UIF8); experiment: qHTS Assay for Inhibitors of BAZ2B; details: AlphaScreen BAZ2B-H3K14Ac peptide displacement; series mostly up to 114 µM; note: nearly all actives have a fitted effect of over 60% in size
UniProt Q9UIF8, sequence (Q9UIF8 whole entry, looked up, the tested form may be a part): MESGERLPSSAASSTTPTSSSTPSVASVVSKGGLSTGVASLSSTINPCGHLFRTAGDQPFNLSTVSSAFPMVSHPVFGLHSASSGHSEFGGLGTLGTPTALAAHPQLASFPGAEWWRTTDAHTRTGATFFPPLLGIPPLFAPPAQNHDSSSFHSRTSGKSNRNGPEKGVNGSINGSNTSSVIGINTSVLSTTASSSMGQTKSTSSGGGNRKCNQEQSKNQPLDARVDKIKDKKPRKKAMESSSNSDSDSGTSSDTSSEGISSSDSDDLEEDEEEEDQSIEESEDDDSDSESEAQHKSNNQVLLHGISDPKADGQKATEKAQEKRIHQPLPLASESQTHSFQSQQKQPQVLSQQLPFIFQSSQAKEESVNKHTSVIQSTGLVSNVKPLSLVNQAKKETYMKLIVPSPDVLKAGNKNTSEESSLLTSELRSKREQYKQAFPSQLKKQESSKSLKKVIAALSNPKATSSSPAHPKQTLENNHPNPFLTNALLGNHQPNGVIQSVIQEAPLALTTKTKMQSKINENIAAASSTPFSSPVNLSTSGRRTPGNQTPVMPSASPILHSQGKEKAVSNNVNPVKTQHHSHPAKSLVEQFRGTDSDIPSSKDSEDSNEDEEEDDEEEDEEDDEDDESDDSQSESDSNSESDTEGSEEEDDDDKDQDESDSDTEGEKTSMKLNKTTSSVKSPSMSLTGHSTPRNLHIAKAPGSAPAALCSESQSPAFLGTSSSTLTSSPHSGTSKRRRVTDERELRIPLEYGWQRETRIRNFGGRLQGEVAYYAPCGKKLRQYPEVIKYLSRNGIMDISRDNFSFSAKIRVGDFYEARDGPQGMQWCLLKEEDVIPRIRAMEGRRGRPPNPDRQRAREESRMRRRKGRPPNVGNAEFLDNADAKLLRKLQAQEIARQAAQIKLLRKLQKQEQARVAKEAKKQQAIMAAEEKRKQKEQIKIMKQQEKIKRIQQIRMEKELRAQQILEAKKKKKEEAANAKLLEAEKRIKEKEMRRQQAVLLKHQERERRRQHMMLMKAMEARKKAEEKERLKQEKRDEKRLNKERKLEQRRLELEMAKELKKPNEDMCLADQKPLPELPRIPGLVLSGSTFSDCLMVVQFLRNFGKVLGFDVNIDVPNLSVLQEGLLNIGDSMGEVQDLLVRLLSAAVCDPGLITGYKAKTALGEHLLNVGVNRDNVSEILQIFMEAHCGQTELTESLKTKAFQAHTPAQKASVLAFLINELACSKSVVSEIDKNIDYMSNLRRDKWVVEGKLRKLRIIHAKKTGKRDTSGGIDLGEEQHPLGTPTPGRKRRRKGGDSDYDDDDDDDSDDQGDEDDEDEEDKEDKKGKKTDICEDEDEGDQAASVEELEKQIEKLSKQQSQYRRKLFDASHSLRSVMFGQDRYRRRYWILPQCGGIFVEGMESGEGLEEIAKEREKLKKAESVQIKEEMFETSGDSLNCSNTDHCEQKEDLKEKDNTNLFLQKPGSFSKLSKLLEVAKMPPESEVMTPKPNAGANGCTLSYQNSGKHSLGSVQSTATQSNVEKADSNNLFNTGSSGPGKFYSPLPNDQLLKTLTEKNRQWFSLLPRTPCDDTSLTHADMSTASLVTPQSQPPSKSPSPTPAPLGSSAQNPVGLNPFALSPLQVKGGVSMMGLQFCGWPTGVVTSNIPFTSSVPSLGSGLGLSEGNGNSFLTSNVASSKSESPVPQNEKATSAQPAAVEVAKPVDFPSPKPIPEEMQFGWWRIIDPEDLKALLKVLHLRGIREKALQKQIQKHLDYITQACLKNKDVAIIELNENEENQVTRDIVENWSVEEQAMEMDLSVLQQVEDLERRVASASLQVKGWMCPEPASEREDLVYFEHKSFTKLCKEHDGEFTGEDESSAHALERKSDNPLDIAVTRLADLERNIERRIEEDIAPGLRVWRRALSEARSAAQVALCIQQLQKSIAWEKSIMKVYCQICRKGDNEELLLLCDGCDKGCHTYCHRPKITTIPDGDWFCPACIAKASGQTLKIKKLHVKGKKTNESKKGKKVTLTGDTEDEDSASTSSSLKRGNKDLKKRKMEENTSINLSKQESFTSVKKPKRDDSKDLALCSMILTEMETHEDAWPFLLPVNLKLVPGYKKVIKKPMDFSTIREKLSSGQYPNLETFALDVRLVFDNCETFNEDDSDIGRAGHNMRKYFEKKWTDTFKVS
Procedure, shortened: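 BAZ2B (50 nM) with biotin-H3(5-23)K14Ac peptide (50 nM) in PBS pH 7.4, 0.01% Tween-20, preformed 30 min, then compound 30 min at room temperature; top concentration 110uM. AlphaScreen streptavidin donor/nickel chelate acceptor beads (10 ug/mL final), 20 min dark, signal read.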
Potency is the fitted concentration of half-maximal effect; tags give direction and shape of the fitted curve.

Row | SMILES | Potency
1 | O=C(NCCc1ccccc1)C(=O)NCC(c1cccnc1)N1CCN(c2ccccc2)CC1 (stereo not given) | inconclusive: 89.1 µM [inhibitor, single point]
2 | CC(=O)c1ccc(N2CCN(S(=O)(=O)c3cc(-c4onc(C)c4C)ccc3C)CC2)cc1 | inactive
3 | CC(CNC(=O)c1ccc(CSc2nc3ccncc3n2Cc2cccc(F)c2)cc1)c1ccccc1 (stereo not given) | inactive
4 | CC(Nc1cccc([N+](=O)[O-])c1)C(=O)Nc1ccc(S(=O)(=O)N2CCCC2)cc1 (stereo not given) | inactive
5 | COc1ccc(C(=O)N/N=C/c2ccc(OC)c(OS(=O)(=O)c3ccccc3)c2)cc1 | inconclusive: 100 µM [inhibitor, single point]
6 | CCOc1ccc(Nc2nc(Cc3nnc(SCC(=O)NCC4CCCO4)n3C)cs2)cc1 (stereo not given) | inconclusive: 89.1 µM [inhibitor, single point]
7 | CCOC(=O)c1c(S(=O)(=O)N(C)Cc2ccccc2)c(C)n(C)c1C | inconclusive: 89.1 µM [inhibitor, single point]
8 | CC1=NNC(=O)C1C(c1cccc(O)c1)C(C#N)C#N (stereo not given) | inactive
9 | COc1cccc(/C=N/NC(=O)c2ccc3nc[nH]c3c2)c1O | inconclusive: 89.1 µM [inhibitor, single point]
10 | COc1cccc(Nc2nc(N)c([N+](=O)[O-])c(NCc3ccco3)n2)c1 | inconclusive: 44.7 µM [inhibitor, partial curve]
11 | CCCCOC(=O)c1ccc(NC(=O)c2ccc3c(c2)CCCN3S(C)(=O)=O)cc1 | inactive
12 | COc1cccc(CN2CCC(C(=O)N3CCN(c4ccccc4F)CC3)CC2)c1OC | inconclusive: 79.4 µM [inhibitor, single point]
13 | CCOC(=O)N1CCN(C(=O)CCCn2c(=S)[nH]c3ccc(Br)cc3c2=O)CC1 | inactive
14 | Cc1ccc(N2C(=O)C(Cl)=C(N3CCCCCC3)C2=O)c(C)c1 | inactive
15 | Cc1ccccc1N/N=C/c1ccc(C#N)cc1 | inconclusive: 70.8 µM [inhibitor, single point]
16 | CCn1c(=O)c(C(=O)Nc2ccc(C)cc2)c(O)c2ccccc21 | inconclusive: 89.1 µM [inhibitor, single point]
17 | O=C(CN(CCc1ccccc1)C(=O)Cn1nnc(-c2cccs2)n1)NCc1ccco1 | inconclusive: 89.1 µM [inhibitor, single point]
18 | CC1CCN(c2ccc(-c3cccs3)nn2)CC1 | inactive
19 | Cc1ccc(NC(=O)CN2CCCCCC2)cc1Br | inconclusive: 79.4 µM [inhibitor, partial curve]
20 | COc1ccc(/C=N/NC(=O)c2nnn(-c3nonc3N)c2CN(C)c2ccccc2)cc1 | inconclusive: 39.8 µM [inhibitor, single point]
21 | Cc1ccccc1CNC(=O)CN1CCSc2ccccc21 | inconclusive: 31.6 µM [inhibitor, partial curve]
22 | COc1ccc(CN2C(=O)c3cccnc3C2=O)cc1S(=O)(=O)NCc1ccccc1 | inconclusive: 50.1 µM [inhibitor, partial curve]
23 | Cc1cc(C)n(Cc2ccc(C(=O)NCc3ccco3)o2)n1 | inconclusive: 11.2 µM [inhibitor, single point]

Row | SMILES | Potency
24 | Cc1ccccc1Nc1nc(N)nc(CN2CCN(C(=O)c3ccccc3)CC2)n1 | inconclusive: 79.4 µM [inhibitor, single point]
25 | OC[C@@H](O)C1OC2NC(=S)OC2C1O (stereo not given in full) | inactive
26 | CSc1ccc(C2C(C#N)=C(N)N(c3ccccc3)C3=C2C(=O)CCC3)cc1 (stereo not given) | inconclusive: 79.4 µM [inhibitor, single point]
27 | O=C(CCN1C(=O)/C(=C\c2ccccc2Cl)SC1=S)N1CCN(c2ccccc2)CC1 | inconclusive: 5.62 µM [inhibitor, full curve]
28 | N#CC(C(=O)NCc1ccco1)c1nc2ccccc2nc1N1CCOCC1 (stereo not given) | inconclusive: 50.1 µM [inhibitor, partial curve]
29 | COc1ccc(/C=N\NC(=O)c2ccc([N+](=O)[O-])c(C)c2)cc1COc1ccccc1C(N)=O | inconclusive: 89.1 µM [inhibitor, single point]
30 | CCC(C(=O)Nc1cc(-c2cn3cccnc3n2)ccc1C)c1ccccc1 (stereo not given) | inactive
31 | CCOCCCn1c(SCC(=O)Nc2ccc(F)cc2)nc2c(sc3ccccc32)c1=O | inactive
32 | Cc1cc(CNC(=O)c2cccnc2Cl)c2ccccc2n1 | inactive
33 | COc1ccc(C(OCC(O)CN2CCC(O)CC2)c2ccc(OC)cc2)cc1 (stereo not given) | inactive
34 | CC1CC(C)CN(Cc2nc(N)nc(Nc3ccc4ccccc4c3)n2)C1 (stereo not given) | active: 50.1 µM
35 | COc1ccc(NC(=O)CN(C)C(=O)c2ccc(N3CCCCC3)c([N+](=O)[O-])c2)cc1 | inconclusive: 79.4 µM [inhibitor, single point]
36 | CC(Oc1cc2oc(=O)c3c(c2cc1Cl)CCC3)C(=O)NCCCN1CCCC1=O (stereo not given) | inactive
37 | O=C(O)CSCC(=O)N1CCN(c2cc(C(F)(F)F)nc3ccccc23)CC1 | inactive
38 | COc1ccccc1C1c2[nH]c3ccccc3c2CCN1Cc1ccc(NC(C)=O)s1 (stereo not given) | inconclusive: 44.7 µM [inhibitor, partial curve]
39 | CC(C)C(CC(=O)NCc1ccco1)c1ccco1 (stereo not given) | inconclusive: 89.1 µM [inhibitor, single point]
40 | O=C(CCC(=O)Nc1cccc([N+](=O)[O-])c1)N/N=C/c1cccs1 | inconclusive: 89.1 µM [inhibitor, single point]
41 | O=C(CC1NCCNC1=O)Nc1ccc(F)c(Cl)c1 (stereo not given) | inactive
42 | Cc1cc(=O)c2cc3nc(-c4cccnc4)oc3c(Br)c2o1 | active: 79.4 µM
43 | Cc1cc(C(=O)N/N=C/c2cc(Br)ccc2OC(=O)c2ccc(Br)cc2)n[nH]1 | inconclusive: 89.1 µM [inhibitor, single point]
44 | CSCCCNC(=S)Nc1ccc(N2CCOCC2)cc1N1CCOCC1 | inconclusive: 79.4 µM [inhibitor, single point]
45 | COc1cccc(N2CCN(S(=O)(=O)c3c(C)[nH]c(C)c3C(=O)N3CCCCC3)CC2)c1 | inconclusive: 79.4 µM [inhibitor, partial curve]
